Patent US3959283A, “Amino-derivatives of 1,4-benzodioxan” (Laboratoire L. Lafon, priority 1974, dated 1976)
Structures can show the parent of a compound that is named as a salt.

Tests used:
[1] = Acute intravenous toxicity in mice, products of Examples 10 to 13 (LD50); conditions: mouse, in vivo, i.v., group of male and female mice
From the text: (a) determined on a group of male and female mice,
(b) determined on a group consisting solely of female mice.

[2] = test system: adrenergic receptors; assay: Inhibition/reversal of tension effects of adrenalin, intravenous (products of Examples 11 to 13); type: in vivo; conditions: for effect of adrenalin (hypertension): successive doses
Description: the doses of CRL 40,150 from 0.5 to 4 mg/kg being administered successively.

[3] = test system: dogs; assay: Hypotensive effect in dogs anaesthetised with Nembutal; type: in vivo
From the text: This hypotension manifests itself especially in a decrease in the differential pressure, the lowering of the diastolic pressure being greater than that of the systolic pressure.

[4] = test system: adrenalin; assay: Effect on the amines and reflexes: adrenalin; conditions: in vivo
From the text: (§1) In Table III below, the effects of the products on the amines and the reflexes have been summarised.

[5] = test system: acetylcholine; assay: Effect on the amines and reflexes: acetylcholine; conditions: in vivo
From the text: as §1

[6] = test system: reflex relating to occlusion of the carotids; assay: Effect on the amines and reflexes: occlusion of the carotids; conditions: in vivo
From the text: as §1

[7] = test system: β-receptors; assay: Effects of adrenalin, isoprenalin and propanolol on flow rates after intraduodenal product of Example 11 (Experiments C and D); conditions: for changes in the graph after i.v. and intraduodenal injections: Experiment D, after product 15 mg/kg ID
[8] = Experiment C, adrenalin 2 mcg/kg i.v. after product, 2 minutes
[9] = Experiment C, adrenalin 2 mcg/kg i.v. after product, 5 minutes
[10] = Experiment C, adrenalin 2 mcg/kg i.v. after product, 10 minutes
[11] = Experiment C, adrenalin 10 mcg/kg ID at 15 hr. 20 min, 15 minutes
[12] = Experiment C, adrenalin 10 mcg/kg ID at 15 hr. 20 min, 40 minutes
[13] = Experiment C, adrenalin 10 mcg/kg ID at 16 hr. 3 min, 10 minutes

With `OC(CN1CCN(CC2COc3ccccc3O2)CC1)c1ccccc1` (centres unmarked) [Example 12, 1-[2-(1,4-Benzodioxanyl)-methyl]-4-[(2-hydroxy-2-phenyl)-ethyl]-piperazine dihydrochloride] as the compound, how does the LD50 [1] read?
Its LD50 is 40 mg/kg.

What about the “effect of adrenalin (hypertension)” value ([2]; after 0.5 mg/kg i.v.) of the same compound?
Its value is 67%.

And the “effect of adrenalin (hypertension)” value ([2]; after 1 mg/kg i.v.)?
The value was 36%.

What about the “effect of adrenalin (hypertension)” value ([2]; after 2 mg/kg i.v.) of the same compound?
Its value is 43%.

What about the “hypertensive effect of adrenalin” value ([2]; i.v., after each injection) of the same compound?
The value was “gradually reduces the hypertensive effect of adrenalin and reverses the tension effects of the latter”.

And the hypotension [3]?
Its hypotension is 37%.

What about the “Effect on the amines and reflexes: adrenalin” value [4] of the same compound?
The value was “reversal”.

What about the “Effect on the amines and reflexes: acetylcholine” value [5] of the same compound?
Its value is “no change”.

What about the “Effect on the amines and reflexes: reflex relating to occlusion of the carotids” value [6] of the same compound?
The value was “unchanged”.

For `CNCC(O)c1ccc(O)c(O)c1` (centres unmarked) [adrenalin], which “effect of adrenalin after blocking of the α-receptors” value ([7]; Experiment C) is on record?
The value was “demonstrate the β-stimulating effect of this amine”.

What about the femoral flow rate [7, 8] of the same compound?
The femoral flow rate was “does not change”.

And the “increase in vertebral flow rate” value [7, 8]?
Its value is 200%.

What about the vertebral flow rate [7, 8] of the same compound?
The vertebral flow rate was 60 mL/min.

And the femoral flow rate [7, 9]?
The femoral flow rate was 108 mL/min.

And the “increase in femoral flow rate” value [7, 9]?
The value was 50%.

And the “increase in vertebral flow rate” value [7, 9]?
Its value is 24%.

And the vertebral flow rate [7, 9]?
The vertebral flow rate was 68 mL/min.

And the “increase in femoral flow rate” value [7, 10]?
Its value is 39%.

What about the “increase in vertebral flow rate” value [7, 10] of the same compound?
The value was 80%.

And the “increase in femoral flow rate” value [7, 11]?
The value was 56%.

And the “increase in vertebral flow rate” value [7, 11]?
Its value is 190%.

And the “increase in femoral flow rate” value [7, 12]?
Its value is 50%.

What about the “increase in vertebral flow rate” value [7, 12] of the same compound?
The value was 120%.

And the femoral flow rate [7, 13]?
Its femoral flow rate is 125 mL/min.

What about the “increase in femoral flow rate” value [7, 13] of the same compound?
Its value is 73%.

And the “increase in vertebral flow rate” value [7, 13]?
Its value is 220%.

And the vertebral flow rate [7, 13]?
The vertebral flow rate was 64 mL/min.

What about the “changes in the graph after i.v. and intraduodenal injections” value [7] of the same compound?
The value was “do not cause substantial changes”.

Which “changes in the graph after i.v. and intraduodenal injections” value [7] does the source give for `CC(C)NCC(O)c1ccc(O)c(O)c1` (centres unmarked) [isoprenalin] here?
Its value is “do not cause substantial changes”.
